Assay results published in the supplement of paper PMC10126150.
Sequences with one replicate were seen in a single cluster, so their values are uncertain.

tested on: ATP; experiment: switch fluorescence ratio, 500 uM ATP over buffer (Cy3 cluster intensity, sum of 5 cycles each) (fold (ratio)); higher = stronger signal-on switching upon ATP binding; sequences stand for … in TCGTCGGCAGCGTCAGATGTGTATAAGAGACAGTTTTTTTTTTTTTTTTTTTTTTTTT…TC; conditions: aptamer strand: ATP DNA aptamer (quencher-CACCTGGGGGAGTATTGCGGAGGAAGG + anchor), 100 nM annealed; ATP concentration: 500 uM; one replicate
How it was run: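 Clusters carrying Cy3-labelled switching strands on a modified Illumina MiSeq flow-cell were annealed to 100 nM quencher-labelled ATP aptamer and imaged in selection buffer. They were imaged again after 15 min with 500 uM ATP at 22 °C, over five buffer/ATP cycles with NaOH stripping and re-annealing in between. For each cluster, the fluorescence ratio is the summed Cy3 intensity of the target cycles divided by that of the buffer cycles, averaged per switch-domain sequence. Clusters outside 100-1000 RFU were left out.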
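Note: ATP exposure 15 min at 22 °C before imaging.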

Row | Sequence | switch fluorescence ratio
1 | ATTTGGGAGC | 0.973
2 | ATTTGGTCT | 0.993
3 | ATTTGGTTAT | 0.993
4 | ATTTGTTAGT | 1.01
5 | ATTTGTTTCG | 0.995
6 | ATTTTAAATC | 1.02
7 | ATTTTAGGAG | 0.977
8 | ATTTTAGTCA | 1.03
9 | ATTTTCAAAA | 1.02
10 | ATTTTCAATT | 0.977
11 | ATTTTCCGGT | 1.02
12 | ATTTTCGGGC | 0.975
13 | ATTTTGAAGT | 0.999
14 | ATTTTGTGAA | 0.967
15 | ATTTTGTGCC | 1.02
16 | ATTTTTAAGT | 1
17 | ATTTTTAATA | 1.01
18 | ATTTTTGTGT | 0.987
19 | ATTTTTTTCA | 0.918
20 | CAAAAAAAGT | 1
21 | CAAAAAACGC | 1.01
22 | CAAAAATTAG | 0.991
23 | CAAAATCGCG | 1.05
24 | CAAAATGTAG | 1.02
25 | CAAAATTAG | 0.994
26 | CAAAATTATG | 0.964

Row | Sequence | switch fluorescence ratio
27 | CAAACGCCTC | 1.84
28 | CAAACGTCGT | 1.01
29 | CAAACTCGAC | 1.11
30 | CAAAGAAACA | 0.98
31 | CAAAGAAAG | 0.985
32 | CAAAGATCGG | 0.957
33 | CAAAGCAGGT | 1.08
34 | CAAAGGAGCC | 1.01
35 | CAAAGGCGAG | 0.989
36 | CAAAGTTTGA | 1.01
37 | CAAATCCACA | 1.04
38 | CAAATCCGAC | 1.25
39 | CAAATCTTCG | 1.36
40 | CAAATGCAGC | 1.07
41 | CAAATGGCT | 0.993
42 | CAAATTCCGC | 1.23
43 | CAAATTTAAC | 0.981
44 | CAAATTTTGT | 1.01
45 | CAACAAGTTC | 0.984
46 | CAACATCAG | 1.02
47 | CAACCAAGTA | 1.03
48 | CAACCGCTGA | 3.94
49 | CAACGAAGCG | 1.09
50 | CAACGATACG | 1.16
51 | CAACGGAAAA | 1.08
52 | CAACGGAGGA | 1.02

Row | Sequence | switch fluorescence ratio
53 | CAACTAGATA | 0.987
54 | CAACTCAGCG | 1.05
55 | CAACTTACGC | 1.26
56 | CAACTTGTGC | 0.997
57 | CAAGAAGATA | 0.962
58 | CAAGACTCTT | 0.986
59 | CAAGAGGAT | 1.12
60 | CAAGAGGATT | 1.02
61 | CAAGAGTAGC | 0.932
62 | CAAGATGAGC | 1.03
63 | CAAGCGAGCC | 1.08
64 | CAAGCGAGGG | 1.02
65 | CAAGCGGGTG | 1.14
66 | CAAGCTATTT | 1.06
67 | CAAGGACTAG | 1.02
68 | CAAGGAGCTA | 0.984
69 | CAAGGAGGCT | 0.972
70 | CAAGGCGCCG | 0.981
71 | CAAGGCGTTT | 1.02
72 | CAAGGCTTT | 0.969
73 | CAAGGGAGC | 1
74 | CAAGGTAAGC | 1.02
75 | CAAGTCTCCG | 1.05
76 | CAAGTGAAAC | 0.97
77 | CAAGTGGAAA | 0.989
78 | CAAGTTAAAA | 1.14

Row | Sequence | switch fluorescence ratio
79 | CAAGTTCGGC | 1.03
80 | CAAGTTCTGA | 1.01
81 | CAAGTTGGTG | 1
82 | CAATAACTAA | 1.05
83 | CAATAAGGTT | 0.975
84 | CAATACGTA | 1.11
85 | CAATAGAGGA | 1
86 | CAATAGTCAT | 0.956
87 | CAATAGTTC | 1.01
88 | CAATATGGAA | 0.98
89 | CAATATGGTT | 1
90 | CAATCAGCTA | 1.05
91 | CAATCCATCG | 0.996
92 | CAATCCGGAT | 0.984
93 | CAATCGAGC | 1.02
94 | CAATCTAATT | 0.901
95 | CAATCTCTCT | 1.02
96 | CAATCTGGGC | 1.16
97 | CAATCTTA | 1.01
98 | CAATCTTCA | 1.12
99 | CAATGAGGCC | 0.95
100 | CAATGATTAG | 1.02
101 | CAATGCGCCC | 1.78
102 | CAATGCTTA | 0.981
103 | CAATGTACCA | 1.08
104 | CAATGTATTA | 0.998

Row | Sequence | switch fluorescence ratio
105 | CAATTCCCAG | 1.03
106 | CAATTCTCGG | 1.04
107 | CAATTGATGG | 0.986
108 | CAATTGGCGG | 0.993
109 | CAATTGTGTG | 1.01
110 | CAATTGTTAA | 0.992
111 | CAATTTATGT | 0.939
112 | CAATTTGAAT | 0.99
113 | CAATTTTCGT | 1.03
114 | CACAAAGCAG | 1.07
115 | CACAAATGCT | 0.989
116 | CACAACCGGA | 0.977
117 | CACAACGCCA | 1.2
118 | CACAACGGCC | 1.02
119 | CACAACGTGG | 0.984
120 | CACAACTGAT | 1.03
121 | CACAAGGAAC | 0.983
122 | CACAATAAGT | 1.03
123 | CACACACCTA | 1.27
124 | CACACGCGTG | 1.02
125 | CACACGGCGC | 1.06
126 | CACACTTAGT | 1.05
127 | CACAGAACAA | 1.03
128 | CACAGAGAAA | 1.05
129 | CACAGATAGC | 1.02
130 | CACAGCCCCC | 1.14

Row | Sequence | switch fluorescence ratio
131 | CACAGGACTG | 1.01
132 | CACAGTCAGT | 1.08
133 | CACAGTGACG | 1.11
134 | CACAGTGCGC | 1.07
135 | CACAGTTTCA | 0.997
136 | CACATAAGAT | 0.954
137 | CACATAAGCA | 1.01
138 | CACATCAAGG | 1.05
139 | CACATCTACT | 1.11
140 | CACATCTTGG | 0.996
141 | CACATGATTA | 1.03
142 | CACATGTTGC | 1.01
143 | CACATTGTT | 0.969
144 | CACCAACCCC | 1.19
145 | CACCAAGCCC | 1.08
146 | CACCAATCGA | 1.01
147 | CACCAATGCT | 1.52
148 | CACCAATTCC | 1.24
149 | CACCATTCA | 1.03
150 | CACCATTCGG | 1.02
151 | CACCCACAGT | 1.53
152 | CACCCCGGAC | 1.26
153 | CACCCGTCCG | 1.08
154 | CACCCTAAAG | 1.06
155 | CACCCTAACG | 1.18
156 | CACCCTGACA | 1.06

Row | Sequence | switch fluorescence ratio
157 | CACCGAACCT | 1.15
158 | CACCGCACCG | 1.57
159 | CACCGGAAAT | 1.1
160 | CACCGTATCT | 1.1
161 | CACCTATAGC | 1.05
162 | CACCTTACAG | 1.32
163 | CACGAAACGG | 1.24
164 | CACGAAGTAA | 1.15
165 | CACGACCGAC | 2.09
166 | CACGATGGTC | 1
167 | CACGATTCTG | 1.04
168 | CACGATTGCT | 1.05
169 | CACGATTTTG | 0.986
170 | CACGCGGGA | 0.996
171 | CACGCGGTCG | 1.03
172 | CACGCTACA | 1.34
173 | CACGCTCAGA | 1.04
174 | CACGCTCGA | 1.04
175 | CACGGGCGGA | 1.32
176 | CACGGGGATA | 1.03
177 | CACGGTGACA | 1.09
178 | CACGGTGGTG | 0.988
179 | CACGTCGGTC | 1.05
180 | CACGTCTGT | 0.986
181 | CACGTCTTCC | 1.03
182 | CACGTGATTC | 1

Row | Sequence | switch fluorescence ratio
183 | CACGTGGAGG | 1.06
184 | CACGTTAGTA | 0.989
185 | CACGTTCGTG | 1.04
186 | CACGTTGGCA | 1.01
187 | CACTAAGTCC | 1.06
188 | CACTACCTGT | 1.05
189 | CACTAGTTCT | 1.02
190 | CACTATAAGT | 0.986
191 | CACTATACAA | 1.29
192 | CACTCCAGCG | 1.39
193 | CACTCGTCCT | 1.15
194 | CACTCTCCGC | 3.35
195 | CACTGCGTCG | 0.995
196 | CACTGCTCAA | 1.06
197 | CACTGGACAA | 1.18
198 | CACTGGACAT | 1.18
199 | CACTGGTCGA | 0.99
200 | CACTGTCATG | 1.09
201 | CACTGTGTCT | 1.03
